# PubChem BioAssay AID1460 (National Center for Advancing Translational Sciences (NCATS), 2008)
# Among all 270,000 compounds or so, about 5,800 (2.1%) were called active. This list was built around the results that the source calls inconclusive (neither active nor inactive); the mix of calls is not that of the screen. The call rests on the fitted dose curve; in most records, active means well fitted inhibition curve with a large enough effect; inconclusive means small, poorly fitted or top-dose-only effect; inactive means flat fitted curve, though single readings scatter. Where the call is inconclusive, the potency comes from a doubtful curve fit.
# Target: Microtubule-associated protein tau (Homo sapiens) (UniProt P10636)
# UniProt P10636, sequence (P10636 whole entry, looked up): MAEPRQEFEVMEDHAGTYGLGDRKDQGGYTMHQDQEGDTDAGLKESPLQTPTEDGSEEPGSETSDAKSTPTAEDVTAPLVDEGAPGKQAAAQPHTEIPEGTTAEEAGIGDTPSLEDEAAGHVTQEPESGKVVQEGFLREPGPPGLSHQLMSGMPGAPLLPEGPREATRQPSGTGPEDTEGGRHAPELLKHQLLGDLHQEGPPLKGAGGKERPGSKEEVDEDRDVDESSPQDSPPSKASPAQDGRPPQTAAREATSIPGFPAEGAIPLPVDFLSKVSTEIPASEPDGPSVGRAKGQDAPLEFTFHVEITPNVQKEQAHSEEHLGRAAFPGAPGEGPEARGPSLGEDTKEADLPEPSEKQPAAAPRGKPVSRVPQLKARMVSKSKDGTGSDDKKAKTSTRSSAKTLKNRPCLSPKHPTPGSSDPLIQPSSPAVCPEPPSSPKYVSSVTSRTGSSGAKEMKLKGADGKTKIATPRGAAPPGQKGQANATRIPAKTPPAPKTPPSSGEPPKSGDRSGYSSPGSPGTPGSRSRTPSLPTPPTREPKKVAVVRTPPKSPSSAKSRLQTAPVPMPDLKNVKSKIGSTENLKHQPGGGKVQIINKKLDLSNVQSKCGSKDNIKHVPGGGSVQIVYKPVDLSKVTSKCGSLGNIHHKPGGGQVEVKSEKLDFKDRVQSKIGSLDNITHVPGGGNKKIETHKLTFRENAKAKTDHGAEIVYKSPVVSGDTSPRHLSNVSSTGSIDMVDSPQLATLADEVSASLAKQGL
# Experiment: qHTS for Inhibitors of Tau Fibril Formation, Thioflavin T Binding; further: nearly all actives have a fitted effect of over 55% in size
# Conditions: recombinant tau K18 P301L (four-repeat tau fragment), heparin-induced fibrillization, ThT fluorescence; series mostly up to 57.4 µM; activity, negative = inhibition: at the top concentration
# In short: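 Heparin-induced fibrillization of the P301L-mutant K18 repeat-domain fragment of human tau was followed by ThT binding in quantitative high-throughput format.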
# On the % scale 0 is the no-effect control and ±100 the full control effect; potency means the concentration at half of the fitted maximal effect; tags describe the fitted curve by direction and shape.
SMILES,"activity, negative = inhibition",Potency
CCOC(=O)c1c(C)c(C(=O)NCc2ccc(Cl)cc2)c(C)n1C,inactive: -9.81%,
O=C(NCCCN1CCOCC1)c1sc2cc([N+](=O)[O-])ccc2c1Cl,,active: 28.2 µM
CC(C)(C)OC(=O)N1CCC(c2c(C(=O)NCc3ccco3)cnn2-c2ccc(F)cc2F)CC1,inactive: -4.4%,
CCN1CCN(CCNC(=O)c2ccc(/C=C3/Sc4ccccc4N(Cc4cccc(C)c4)C3=O)cc2)CC1,,"inconclusive: 39.8 µM [inhibitor, single point]"
CN(CC(=O)NC(=O)NCc1ccco1)Cc1nc2ccccc2c(=O)[nH]1,inactive: -13.2%,
CCOc1ccccc1C(=O)Nc1cc(C(=O)NCC(C)C)ccc1Cl,inactive: -4.05%,
Cc1ccc(Cn2ccn(Cc3ccc(C)cc3)c(=O)c2=O)cc1,,"inconclusive: 39.8 µM [inhibitor, single point]"
CC1CCCN(c2nc3ccccc3nc2C(C#N)S(=O)(=O)c2ccccc2)C1 (stereo not given),,"inconclusive: 22.4 µM [inhibitor, partial curve]"
Cc1sc2nc(SCc3nc(-c4ccccc4)no3)n(-c3ccccc3)c(=O)c2c1C,inactive: 0.984%,
CS(=O)(=O)c1ncc(N(Cc2ccco2)Cc2cccs2)c(C(=O)Nc2ccccc2F)n1,inactive: -0.463%,
Nc1ncc([N+](=O)[O-])c(Oc2ccccc2F)n1,,"inconclusive: 12.6 µM [inhibitor, partial curve]"
CC(C)(C)OC(=O)N1CCC(c2nnc(SCc3ccccc3Cl)o2)CC1,,"inconclusive: 8.91 µM [inhibitor, partial curve, poor fit]"
O=C(CC1CS(=O)(=O)CC1CC(=O)Oc1ccccc1F)Oc1ccccc1F (stereo not given),,"inconclusive: 28.2 µM [inhibitor, single point]"
CC(/C=C1\NC(=S)NC1=O)=C\c1ccccc1,,"inconclusive: 11.2 µM [inhibitor, partial curve]"
Cc1ccc(-c2noc(-c3ccc(NC4CCCC4)c([N+](=O)[O-])c3)n2)cc1,inactive: -16%,
COc1ccc(C2OCC3(COC(C)=O)C(C)C=C(C)C2C3C)cc1 (stereo not given),,"inconclusive: 39.8 µM [inhibitor, single point]"
CNC(=S)N1CCN(c2ccc(Cl)c(Cl)c2)CC1,,"inconclusive: 31.6 µM [inhibitor, partial curve]"
O=[N+]([O-])c1ccc(C(=S)N2CCN(Cc3ccccc3)CC2)cc1,,"inconclusive: 39.8 µM [inhibitor, partial curve]"
Cc1ccc(C2(C(F)(F)F)N=C3Sc4cc(C)cc(C)c4N3C(=O)N2)cc1 (stereo not given),,"inconclusive: 28.2 µM [inhibitor, partial curve]"
C/C(=N\NC(=S)Nc1ccc(F)cc1)C1CC1,,"inconclusive: 35.5 µM [inhibitor, single point]"
CC(C)CCNC(=O)c1c[nH]c2ccc(S(=O)(=O)Nc3cccc(C(F)(F)F)c3)cc2c1=O,inactive: 6.31%,
O=c1c(C/C=C/c2ccccc2)c(O)ccn1CCc1c[nH]c2ccccc12,inactive: -16.1%,
COc1ccc(C)cc1NC(=O)C1CCCN1S(=O)(=O)c1ccc2c(c1)CCC(=O)N2 (stereo not given),,"inconclusive: 20 µM [inhibitor, partial curve]"

SMILES,"activity, negative = inhibition",Potency
Cn1c(CCCOc2ccc(Cl)cc2Cl)nnc1SCC(=O)Nc1nccs1,,"inconclusive: 5.01 µM [inhibitor, full curve, poor fit]"
COc1ccc(/C=N/NC(=O)c2ccc(COc3cccc4cccnc34)cc2)cc1OC,,"inconclusive: 0.398 µM [inhibitor, full curve, poor fit]"
O=[N+]([O-])c1ccc(Cl)c(/C=N/N2CCN(Cc3ccccc3Cl)CC2)c1,inactive: -21.6%,
C/C(=N\NC(=O)c1cc(C(C)C)[nH]n1)c1ccco1,inactive: 2.15%,
CCN1CCN(C(=O)Cn2c(-c3cccs3)cc3cc(Cl)ccc32)CC1,,"inconclusive: 35.5 µM [inhibitor, single point]"
Cc1ccc(S(=O)(=O)N/N=C\c2cc3c(cc2[N+](=O)[O-])OCO3)cc1,,"inconclusive: 12.6 µM [inhibitor, partial curve]"
Cc1ccc(C(=O)N2CC(=O)Nc3ccc(Br)cc3C2c2ccc(F)cc2)cc1C (stereo not given),inactive: -14.4%,
COc1ccccc1C(=O)Nc1ccc2c(c1)nc1n2CCSC1,,"inconclusive: 2 µM [inhibitor, full curve]"
CCc1ccc[n+](-c2[nH]c(=O)sc2/C=N/N=C(\[O-])CCn2c3ccccc3c3ccccc32)c1,,active: 15.8 µM
O=C(NC(Nc1nc2ccc([N+](=O)[O-])cc2s1)(C(F)(F)F)C(F)(F)F)c1cccnc1,inactive: -14.7%,
CC1=CC(=NOC(=O)/C=C/c2ccccc2)C=C(C)C1=O,,active: 22.4 µM
O=c1c(Cl)c(Cl)cnn1Cc1nnc(-c2ccccc2Br)o1,,"inconclusive: 28.2 µM [inhibitor, partial curve]"
O=C(Cn1c(-c2cccs2)cc2ccccc21)NCCCN1CCN(c2cccc(Cl)c2)CC1,,"inconclusive: 14.1 µM [inhibitor, partial curve]"
CCc1nnc(NC(=O)CSc2nccn2Cc2ccccc2)s1,inactive: -1.49%,
CSc1nc(N)nc(SCC(=O)OC(C)C)c1C#N,,"inconclusive: 15.8 µM [inhibitor, partial curve]"
C=C/C1=C/Cc2ccccc2[C@H](C[N+](=O)[O-])C(C(C)=O)(C(=O)OC)C1 (stereo not given in full),,inactive
Cc1noc(-c2ccc(N3CCCCC3C)c([N+](=O)[O-])c2)n1 (stereo not given),inactive: 19.1%,
Cc1cc(Cl)ccc1N(CC(=O)N=Nc1c(O)[nH]c2ccccc12)S(C)(=O)=O,,"inconclusive: 20 µM [inhibitor, partial curve]"
COc1ccc(/C=C2/CCc3ccccc3C2=O)cc1CN1CCOCC1,,"inconclusive: 25.1 µM [inhibitor, single point]"
C=CCn1c(SCc2csc(-c3ccc(C)cc3)n2)nnc1-c1ccccc1OC,,"inconclusive: 11.2 µM [inhibitor, partial curve]"
COc1ccccc1NS(=O)(=O)c1cc(NC(=O)c2cccs2)ccc1N1CCCC1,,"inconclusive: 17.8 µM [inhibitor, partial curve]"
O=C(O)Cc1sc(Nc2ccccc2)nc1-c1cccs1,,"inconclusive: 20 µM [inhibitor, partial curve]"
